Data reported in PubChem BioAssay AID1346428 (National Center for Advancing Translational Sciences (NCATS), 2018).
Hit rate of the full screen: of about 48,000 compounds, about 1,200 (2.5%) were called active. Not shown: some 2% with an inconclusive outcome.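 The calls were made as follows: active = activation of at least 60% and not above a set upper limit (about 1 call in 100 departs from these limits); inconclusive = activation of 40% to 60%, or above that upper limit; inactive = activation under 40%.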 This is one part of the list.

target: Probable G-protein coupled receptor 32 (Homo sapiens) (UniProt O75388); assay: qHTS for Agonists of Human Resolvin D1 Receptor DRV1; conditions: CHO-K1 GPR32 beta-arrestin PathHunter luminescence, 90 min; at 76.9 µM; hits give high values; zero percent set by DMSO-only wells; also: 0% is about no effect
Summary of the method: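 GPR32 activation in stably transfected CHO-K1 cells, detected as beta-arrestin recruitment by enzyme-fragment complementation. Compound exposure: 90 min, 37 °C.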

Chain of UniProt O75388 (O75388 whole entry, looked up, the tested form may be a part): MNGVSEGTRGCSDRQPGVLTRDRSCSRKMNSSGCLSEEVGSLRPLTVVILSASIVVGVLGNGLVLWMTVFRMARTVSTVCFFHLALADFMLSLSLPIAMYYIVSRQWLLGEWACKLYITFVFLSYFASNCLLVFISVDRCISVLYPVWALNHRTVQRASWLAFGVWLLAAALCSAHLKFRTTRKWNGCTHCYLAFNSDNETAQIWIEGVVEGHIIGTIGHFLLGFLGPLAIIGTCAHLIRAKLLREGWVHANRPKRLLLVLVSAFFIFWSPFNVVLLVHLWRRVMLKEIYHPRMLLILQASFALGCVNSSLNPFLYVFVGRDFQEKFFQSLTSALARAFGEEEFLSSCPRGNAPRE

activation, inactive:
CN(C)c1ccc(CNC(=O)CCCN2C(=O)CCn3nc(-c4cccn4C)cc32)cc1 -6.42%
Oc1ccccc1-c1nc(/C=C/c2ccccc2Cl)no1 0.968%
Cc1ccccc1NC(=O)CCc1c(C)nn(-c2ccc(N3CCCCC3)nn2)c1C -5.47%
COc1cc(-c2nc3sccn3c2Nc2cccc(C)c2)ccc1O -26.9%
Cc1ccc(O)c(-c2ccnc3cc(-c4ccc(Cl)cc4)nn23)c1 32.4%
Cc1coc2cc3oc(=O)c(CC(=O)NCc4ccc(F)cc4)c(C)c3cc12 -4.25%
Cc1ccc(-n2c(=O)c3c4c(sc3n(Cc3ccccc3F)c2=O)CCC4)cc1C -0.923%
Cc1nc(-c2ccc(Cl)cc2)sc1CCNC(=O)c1ccco1 31.4%
COc1ccc(C(=O)Nc2ccc3nc(SCc4ccc(C)cc4)sc3c2)cc1 -16.1%
COc1ccccc1OCCCn1c(C2CC(=O)N(c3ccccc3Cl)C2)nc2ccccc21 (centres undefined) 18.2%
Cc1ccc(Cn2c(=O)n(Cc3nc(-c4ccccc4)no3)c(=O)c3cc4c(cc32)OCO4)cc1 -10.3%
CC(=O)c1cccc(NC(=O)CCc2c(C)nc3c(-c4ccc(F)cc4)c(C)nn3c2C)c1 6.17%
O=C(Nc1ccccc1)N1CCN(C(=O)c2nsc3ccccc23)CC1 -9.57%
Cc1ccc(CCNC(=O)CCn2c(=O)c3cccn3c3ccc(F)cc32)cc1 37.1%
CCCc1nc2sc3c(N4CCCCC4)ncnc3c2c2c1CCCC2 -2.33%
COc1ccc(OC)c(NC(=O)Cn2cc(S(=O)(=O)c3ccccc3)c(=O)c3cc(C)ccc32)c1 8.36%
Cc1cc(=O)n2nc(N3CCC(C(=O)Nc4ccc(C(C)C)cc4)CC3)sc2n1 5.24%
Fc1cccc(F)c1-c1nc(-c2ccncc2)no1 7.57%
COc1cccc(CNC(=O)C2Cc3cc(S(=O)(=O)N4CCCCCC4)ccc3N2C(C)=O)c1 (centres undefined) 8.73%
CCOC(=O)C1CCN(C(=O)c2ccc3c(c2)sc2nc(-c4ccccc4)cn23)CC1 1.83%
CCN(CC)S(=O)(=O)c1ccc2c(c1)c(=O)c(C(=O)NCc1ccc(Cl)cc1)cn2C 40.2%
COc1ccc(CC(=O)NCc2ccc3c(c2)CCN3C(C)=O)cc1OC -20.6%
Nc1c(C(=O)Nc2ccc(Cl)c(C(F)(F)F)c2)sc2nc(-c3ccncc3)ccc12 -18.8%
Cc1c(C(=O)N(C)C)sc2c1c(=O)n(-c1ccc(F)cc1)c(=O)n2Cc1cc(=O)n2ccccc2n1 -1.91%
